Data from the supplement of paper PMC12217912.
The other results are listed elsewhere or left out. Sequences were assembled here from the parent chain. Values near 0.05 are background.

B1: TEV protease; numbered along this chain (parent)
chain: MGESLFKGPRDYNPISSSICHLTNESDGHTTSLYGIGFGPFIITNKHLFRRNNGTLVVQSLHGVFKVKDTTTLQQHLVDGRDMIIIRMPKDFPPFPQKLKFREPQREERICLVTTNFQTKSMSSMVSDTSCTFPSGDGIFWKHWIQTKDGQCGSPLVSTRDGFIVGIHSASNFTNTNNYFTSVPKNFMELLTNQEAQQWVSGWRLNADSVLWGGHKVFMVKPEEPFQPVKEATQL
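Also: Bxb1 expression induced with 0.2% (w/v) L-rhamnose at OD600 near 0.5, cultures sampled hourly, flipped fraction per protease–substrate barcode pair counted by paired-end Illumina sequencing.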

Variants of: B1
Assay: raw area under fraction-flipped curve 0-4 h after induction (AUC4h, not background-subtracted), DNA-recorder readout of cleavage of the substrate (dimensionless); higher = more cleavage of the substrate by the protease variant
Conditions: temperature: 34 °C; time window: 0-4 h after rhamnose induction
For A232F, the “area with substrate ENLYFMS” value was 0.0725, the “area with substrate ENLYFNS” value was 0.0613 and the “area with substrate ENLYFWS” value was 0.0469. In the case of A232M, the “area with substrate ENLYFES” value is reported as 0.0994, the “area with substrate ENLYFFS” value is reported as 0.0694 and the “area with substrate ENLYFHS” value is reported as 0.0566. The “area with substrate ENLYFIS” value was 0.0565, the “area with substrate ENLYFMS” value was 0.0849 and the “area with substrate ENLYFNS” value was 0.0569. The “area with substrate ENLYFPS” value was 0.0564, the “area with substrate ENLYFTS” value was 0.0659 and the “area with substrate ENLYFWS” value was 0.0311. In the case of A232T, the “area with substrate ENLYFES” value is reported as 0.0634, the “area with substrate ENLYFFS” value is reported as 0.0665 and the “area with substrate ENLYFIS” value is reported as 0.0637. For the same variant, the “area with substrate ENLYFKS” value was 0.0599, the “area with substrate ENLYFNS” value was 0.0742 and the “area with substrate ENLYFPS” value was 0.0557. The “area with substrate ENLYFSS” value was 0.0488, the “area with substrate ENLYFTS” value was 0.0486 and the “area with substrate ENLYFWS” value was 0.0495. For V200I, the “area with substrate ENLYFGS” value was 0.0468, the “area with substrate ENLYFHS” value was 0.0479 and the “area with substrate ENLYFPS” value was 0.0952. For the same variant, the “area with substrate ENLYFTS” value was 0.0613. With V200W the “area with substrate ENLYFIS” value was 0.0625, the “area with substrate ENLYFKS” value was 0.057 and the “area with substrate ENLYFPS” value was 0.0748. The “area with substrate ENLYFTS” value was 0.0514. With D208K the “area with substrate ENLYFIS” value was 0.0635, the “area with substrate ENLYFKS” value was 0.0555 and the “area with substrate ENLYFPS” value was 0.0633. For the same variant, the “area with substrate ENLYFVS” value was 0.0578 and the “area with substrate ENLYFYS” value was 0.0392. With W144K the “area with substrate ENLYFFS” value was 0.0734, the “area with substrate ENLYFGS” value was 0.0598 and the “area with substrate ENLYFIS” value was 0.0587. The “area with substrate ENLYFNS” value was 0.0713, the “area with substrate ENLYFPS” value was 0.0346 and the “area with substrate ENLYFSS” value was 0.0598. The “area with substrate ENLYFYS” value was 0.0648. With M88D the “area with substrate ENLYFIS” value was 0.0285 and the “area with substrate ENLYFMS” value was 0.0314. For G8D, the “area with substrate ENLYFIS” value was 0.0548, the “area with substrate ENLYFMS” value was 0.0651 and the “area with substrate ENLYFPS” value was 0.0793. In the case of G8A, the “area with substrate ENLYFFS” value is reported as 0.0593, the “area with substrate ENLYFHS” value is reported as 0.0669 and the “area with substrate ENLYFIS” value is reported as 0.0618. For the same variant, the “area with substrate ENLYFKS” value was 0.0611 and the “area with substrate ENLYFYS” value was 0.0524. For K216I, the “area with substrate ENLYFIS” value was 0.0487, the “area with substrate ENLYFSS” value was 0.0544 and the “area with substrate ENLYFTS” value was 0.0719. For T176V, the “area with substrate ENLYFKS” value was 0.0574, the “area with substrate ENLYFNS” value was 0.0665 and the “area with substrate ENLYFPS” value was 0.0748. For the same variant, the “area with substrate ENLYFVS” value was 0.0588 and the “area with substrate ENLYFWS” value was 0.0643. With T192W the “area with substrate ENLYFLS” value was 0.0759.
